The results in this text go back to publication PMC12820563, “FoxP3 forms a head-to-head dimer in vivo and stabilizes its multimerization on adjacent microsatellites”.

The list shows a part of the results.

The test has as its target T1, MBP-FoxP1dN (Mus musculus, UniProt P58462 326-579).
T1 sequence: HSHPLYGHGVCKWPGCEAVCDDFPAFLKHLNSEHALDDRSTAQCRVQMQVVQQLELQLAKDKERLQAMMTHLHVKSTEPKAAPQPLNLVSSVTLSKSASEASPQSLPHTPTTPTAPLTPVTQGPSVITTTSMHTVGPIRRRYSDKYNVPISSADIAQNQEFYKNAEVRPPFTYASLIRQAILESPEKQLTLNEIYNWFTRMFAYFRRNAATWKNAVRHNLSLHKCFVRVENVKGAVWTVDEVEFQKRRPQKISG
As to the kind of experiment: PD-seq (MBP pull-down with sequencing); 20 mM Tris-HCl pH 7.5, 100 mM NaCl, 1.5 mM MgCl2, 0.4 uM protein, 0.1 uM dsDNA library, 30 min, room temperature, amylose pull-down; high values mean tight binding. The conditions noted are these: protein: recombinant; tags: His6-MBP; chain copies: 2; dsDNA, one strand shown. The procedure, abridged: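 His6-MBP-tagged mouse FoxP3 or FoxP1 fragment lacking the N-terminus, expressed in E. coli, was mixed at 0.4 µM with 0.1 µM Klenow-filled double-stranded degenerate DNA library. Incubation was 30 min at room temperature in Tris pH 7.5 buffer with NaCl and MgCl2. Complexes were caught on amylose resin and washed three times; DNA was released with proteinase K, PCR-barcoded and Illumina-sequenced. Binding is reads-per-million enrichment, pull-down over input, with replicates pooled.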
On to “GATGATTGTTCTCCCAGCTGATGAATTCCGCCATTCGAGTAAACAAATTTTCCTAATCTTTCTGTTCAAGCGCCATCTAC”, for which the binding signal was 0.861 RPM ratio (pull-down/input).
Regarding “GATGATTGTTCTCCCAGCTGATGAATTGAGAGTATCGAGTAAACAAATTTTCCTAATCTTTCTGTTCAAGCGCCATCTAC”, the binding signal is 0.878 RPM ratio (pull-down/input).
Next, “GATGATTGTTCTCCCAGCTGATGAATTCTCCAGATCGAGTAAACAAATTTTCCTAATCTTTCTGTTCAAGCGCCATCTAC”: 0.8 RPM ratio (pull-down/input); “GATGATTGTTCTCCCAGCTGATGAATTTACATTCTCGAGTAAACAAATTTTCCTAATCTTTCTGTTCAAGCGCCATCTAC”: 1.39 RPM ratio (pull-down/input).
Next, “GATGATTGTTCTCCCAGCTGATGAATTGTAGAATTCGAGTAAACAAATTTTCCTAATCTTTCTGTTCAAGCGCCATCTAC”: 0.977 RPM ratio (pull-down/input); “GATGATTGTTCTCCCAGCTGATGAATTGTCGGTCTCGAGTAAACAAATTTTCCTAATCTTTCTGTTCAAGCGCCATCTAC”: 0.852 RPM ratio (pull-down/input); “GATGATTGTTCTCCCAGCTGATGAATTTACAACGTCGAGTAAACAAATTTTCCTAATCTTTCTGTTCAAGCGCCATCTAC”: 1.26 RPM ratio (pull-down/input).
The figure for “GATGATTGTTCTCCCAGCTGATGAATTCGACACATCGAGTAAACAAATTTTCCTAATCTTTCTGTTCAAGCGCCATCTAC” is 1.01 RPM ratio (pull-down/input); for “GATGATTGTTCTCCCAGCTGATGAATTGAAGCCGTCGAGTAAACAAATTTTCCTAATCTTTCTGTTCAAGCGCCATCTAC” it is 0.783 RPM ratio (pull-down/input); for “GATGATTGTTCTCCCAGCTGATGAATTCCTGAGATCGAGTAAACAAATTTTCCTAATCTTTCTGTTCAAGCGCCATCTAC” it is 0.837 RPM ratio (pull-down/input).
For the sequence “GATGATTGTTCTCCCAGCTGATGAATTCCACTTGTCGAGTAAACAAATTTTCCTAATCTTTCTGTTCAAGCGCCATCTAC”, the binding signal is 0.802 RPM ratio (pull-down/input).
For “GATGATTGTTCTCCCAGCTGATGAATTGACTAATTCGAGTAAACAAATTTTCCTAATCTTTCTGTTCAAGCGCCATCTAC”, the binding signal was 1.18 RPM ratio (pull-down/input).
Regarding “GATGATTGTTCTCCCAGCTGATGAATTAACGTTTTCGAGTAAACAAATTTTCCTAATCTTTCTGTTCAAGCGCCATCTAC”, the binding signal was 1.01 RPM ratio (pull-down/input).
Next, “GATGATTGTTCTCCCAGCTGATGAATTACGCCGTTCGAGTAAACAAATTTTCCTAATCTTTCTGTTCAAGCGCCATCTAC”: 0.968 RPM ratio (pull-down/input); “GATGATTGTTCTCCCAGCTGATGAATTCGCAGACTCGAGTAAACAAATTTTCCTAATCTTTCTGTTCAAGCGCCATCTAC”: 0.806 RPM ratio (pull-down/input); “GATGATTGTTCTCCCAGCTGATGAATTCGTATATTCGAGTAAACAAATTTTCCTAATCTTTCTGTTCAAGCGCCATCTAC”: 1.05 RPM ratio (pull-down/input).
The figure for “GATGATTGTTCTCCCAGCTGATGAATTATGCTTTTCGAGTAAACAAATTTTCCTAATCTTTCTGTTCAAGCGCCATCTAC” is 1.39 RPM ratio (pull-down/input); for “GATGATTGTTCTCCCAGCTGATGAATTGCCAGCATCGAGTAAACAAATTTTCCTAATCTTTCTGTTCAAGCGCCATCTAC” it is 1.07 RPM ratio (pull-down/input).
Next, “GATGATTGTTCTCCCAGCTGATGAATTTTATTTATCGAGTAAACAAATTTTCCTAATCTTTCTGTTCAAGCGCCATCTAC”: 2.95 RPM ratio (pull-down/input); “GATGATTGTTCTCCCAGCTGATGAATTCGCATGCTCGAGTAAACAAATTTTCCTAATCTTTCTGTTCAAGCGCCATCTAC”: 0.915 RPM ratio (pull-down/input).
In the case of “GATGATTGTTCTCCCAGCTGATGAATTGCGAGATTCGAGTAAACAAATTTTCCTAATCTTTCTGTTCAAGCGCCATCTAC”, the binding signal was 1.1 RPM ratio (pull-down/input).
Next, “GATGATTGTTCTCCCAGCTGATGAATTTGATCCCTCGAGTAAACAAATTTTCCTAATCTTTCTGTTCAAGCGCCATCTAC”: 0.857 RPM ratio (pull-down/input); “GATGATTGTTCTCCCAGCTGATGAATTCTGTGCCTCGAGTAAACAAATTTTCCTAATCTTTCTGTTCAAGCGCCATCTAC”: 0.923 RPM ratio (pull-down/input).
Regarding “GATGATTGTTCTCCCAGCTGATGAATTTGCAATCTCGAGTAAACAAATTTTCCTAATCTTTCTGTTCAAGCGCCATCTAC”, the binding signal is 1.07 RPM ratio (pull-down/input).
Next, “GATGATTGTTCTCCCAGCTGATGAATTGGCGTACTCGAGTAAACAAATTTTCCTAATCTTTCTGTTCAAGCGCCATCTAC”: 0.914 RPM ratio (pull-down/input); “GATGATTGTTCTCCCAGCTGATGAATTCTAAGCTTCGAGTAAACAAATTTTCCTAATCTTTCTGTTCAAGCGCCATCTAC”: 0.832 RPM ratio (pull-down/input); “GATGATTGTTCTCCCAGCTGATGAATTTACCAGATCGAGTAAACAAATTTTCCTAATCTTTCTGTTCAAGCGCCATCTAC”: 1.18 RPM ratio (pull-down/input).
“GATGATTGTTCTCCCAGCTGATGAATTGGGCTGATCGAGTAAACAAATTTTCCTAATCTTTCTGTTCAAGCGCCATCTAC”: the binding signal is 0.881 RPM ratio (pull-down/input).
The figure for “GATGATTGTTCTCCCAGCTGATGAATTTCGTTTATCGAGTAAACAAATTTTCCTAATCTTTCTGTTCAAGCGCCATCTAC” is 1.41 RPM ratio (pull-down/input); for “GATGATTGTTCTCCCAGCTGATGAATTGCGACCGTCGAGTAAACAAATTTTCCTAATCTTTCTGTTCAAGCGCCATCTAC” it is 1.02 RPM ratio (pull-down/input).
As for “GATGATTGTTCTCCCAGCTGATGAATTCACCAGGTCGAGTAAACAAATTTTCCTAATCTTTCTGTTCAAGCGCCATCTAC”, the binding signal was 0.823 RPM ratio (pull-down/input).
On to “GATGATTGTTCTCCCAGCTGATGAATTTCTGCAATCGAGTAAACAAATTTTCCTAATCTTTCTGTTCAAGCGCCATCTAC”, for which the binding signal is 1.1 RPM ratio (pull-down/input).
As to “GATGATTGTTCTCCCAGCTGATGAATTCGCGAGGTCGAGTAAACAAATTTTCCTAATCTTTCTGTTCAAGCGCCATCTAC”, the binding signal is 0.764 RPM ratio (pull-down/input).
With “GATGATTGTTCTCCCAGCTGATGAATTTCCCTGCTCGAGTAAACAAATTTTCCTAATCTTTCTGTTCAAGCGCCATCTAC”, the binding signal was 0.78 RPM ratio (pull-down/input).
The figure for “GATGATTGTTCTCCCAGCTGATGAATTCTGTGTATCGAGTAAACAAATTTTCCTAATCTTTCTGTTCAAGCGCCATCTAC” is 1.79 RPM ratio (pull-down/input); for “GATGATTGTTCTCCCAGCTGATGAATTACGTCCGTCGAGTAAACAAATTTTCCTAATCTTTCTGTTCAAGCGCCATCTAC” it is 0.998 RPM ratio (pull-down/input); for “GATGATTGTTCTCCCAGCTGATGAATTTAAAGACTCGAGTAAACAAATTTTCCTAATCTTTCTGTTCAAGCGCCATCTAC” it is 0.803 RPM ratio (pull-down/input).
Next, “GATGATTGTTCTCCCAGCTGATGAATTGCAATCATCGAGTAAACAAATTTTCCTAATCTTTCTGTTCAAGCGCCATCTAC”: 1.48 RPM ratio (pull-down/input); “GATGATTGTTCTCCCAGCTGATGAATTCTTGTGCTCGAGTAAACAAATTTTCCTAATCTTTCTGTTCAAGCGCCATCTAC”: 0.933 RPM ratio (pull-down/input).
As for “GATGATTGTTCTCCCAGCTGATGAATTGCCTCGCTCGAGTAAACAAATTTTCCTAATCTTTCTGTTCAAGCGCCATCTAC”, the binding signal is 0.905 RPM ratio (pull-down/input).
